According to the antibiotic and cytotoxicity screens of Wong et al. (2023):
The list shows a part of the results.

System: HepG2
Test: cytotoxicity call (relative viability < 0.9)
Details: 10 µM

Question: `C[C@H](CO)N1C[C@H](C)[C@H](CN(C)Cc2ccccc2)Oc2ccc(NS(=O)(=O)c3cn(C)cn3)cc2CC1=O` was tested. Which cytotoxicity call did it give?
Answer: inactive

Question: How did the cytotoxicity call turn out when `C[C@@H]1CN([C@H](C)CO)C(=O)c2ccccc2-c2ccccc2CO[C@H]1CN(C)S(=O)(=O)c1ccc(C(F)(F)F)cc1` was run?
Answer: inactive

Question: With `C[C@@H]1CN([C@H](C)CO)C(=O)c2cc(NC(=O)Nc3ccccc3)ccc2O[C@@H]1CN(C)C(=O)Nc1cccc2ccccc12` as the compound, how does the cytotoxicity call read?
Answer: inactive

Question: How did the cytotoxicity call turn out when `Cc1noc(C)c1NC(=O)Nc1ccc2c(c1)C(=O)N([C@H](C)CO)C[C@@H](C)[C@H](CN(C)S(=O)(=O)c1cccs1)OCCCC[C@@H](C)O2` was run?
Answer: inactive

Question: Which cytotoxicity call does the source give for `COc1ccc(S(=O)(=O)N(C)C[C@@H]2Oc3cc(Br)ccc3S(=O)(=O)N([C@H](C)CO)C[C@@H]2C)cc1` here?
Answer: inactive

Question: Which cytotoxicity call does the source give for `C[C@@H]1CN([C@H](C)CO)C(=O)c2cc(NC(=O)Nc3ccc4c(c3)OCO4)ccc2O[C@@H](C)CCCCO[C@@H]1CN(C)S(=O)(=O)c1cccs1` here?
Answer: inactive

Question: `Cc1noc(C)c1NC(=O)N(C)C[C@H]1OCCCC[C@@H](C)Oc2ccc(NC(=O)Nc3ccccc3)cc2C(=O)N([C@H](C)CO)C[C@@H]1C` was tested. Which cytotoxicity call did it give?
Answer: inactive

Question: `CO[C@@H]1CN(C)C(=O)c2cc(NS(=O)(=O)CC(F)(F)F)ccc2OC[C@H](C)N(Cc2ccccn2)C[C@@H]1C` was tested. Which cytotoxicity call did it give?
Answer: inactive

Question: How did the cytotoxicity call turn out when `O=C(C[C@H]1C=C[C@H](NC(=O)CN2CCOCC2)[C@@H](CO)O1)NC1CCCCC1` was run?
Answer: inactive

Question: How did the cytotoxicity call turn out when `CC(=O)Oc1ccc(O)cc1` was run?
Answer: active

Question: For `NNC(=O)Cn1nnc(N2CCCC2)n1`, which cytotoxicity call is on record?
Answer: inactive

Question: With `COCc1cn(CC[C@@H]2CC[C@@H](NC(=O)CCN3CCCCC3)[C@H](CO)O2)nn1` as the compound, how does the cytotoxicity call read?
Answer: inactive
